Experimental data: publication PMC4336329 (PLoS ONE, 2015)
Screen size: about 310,000 compounds; about 2,200 (0.71%) showed an effect of 50% or more. The effect is printed as a negative number. The list shows a part of the results.

Each molecule was assayed against human ether-à-go-go-related gene (hERG) potassium channel (human, UniProt Q12809) (assay: primary screen, population patch clamp on CHO cells stably expressing hERG).
human ether-à-go-go-related gene (hERG) potassium channel, sequence (Q12809 whole entry, looked up): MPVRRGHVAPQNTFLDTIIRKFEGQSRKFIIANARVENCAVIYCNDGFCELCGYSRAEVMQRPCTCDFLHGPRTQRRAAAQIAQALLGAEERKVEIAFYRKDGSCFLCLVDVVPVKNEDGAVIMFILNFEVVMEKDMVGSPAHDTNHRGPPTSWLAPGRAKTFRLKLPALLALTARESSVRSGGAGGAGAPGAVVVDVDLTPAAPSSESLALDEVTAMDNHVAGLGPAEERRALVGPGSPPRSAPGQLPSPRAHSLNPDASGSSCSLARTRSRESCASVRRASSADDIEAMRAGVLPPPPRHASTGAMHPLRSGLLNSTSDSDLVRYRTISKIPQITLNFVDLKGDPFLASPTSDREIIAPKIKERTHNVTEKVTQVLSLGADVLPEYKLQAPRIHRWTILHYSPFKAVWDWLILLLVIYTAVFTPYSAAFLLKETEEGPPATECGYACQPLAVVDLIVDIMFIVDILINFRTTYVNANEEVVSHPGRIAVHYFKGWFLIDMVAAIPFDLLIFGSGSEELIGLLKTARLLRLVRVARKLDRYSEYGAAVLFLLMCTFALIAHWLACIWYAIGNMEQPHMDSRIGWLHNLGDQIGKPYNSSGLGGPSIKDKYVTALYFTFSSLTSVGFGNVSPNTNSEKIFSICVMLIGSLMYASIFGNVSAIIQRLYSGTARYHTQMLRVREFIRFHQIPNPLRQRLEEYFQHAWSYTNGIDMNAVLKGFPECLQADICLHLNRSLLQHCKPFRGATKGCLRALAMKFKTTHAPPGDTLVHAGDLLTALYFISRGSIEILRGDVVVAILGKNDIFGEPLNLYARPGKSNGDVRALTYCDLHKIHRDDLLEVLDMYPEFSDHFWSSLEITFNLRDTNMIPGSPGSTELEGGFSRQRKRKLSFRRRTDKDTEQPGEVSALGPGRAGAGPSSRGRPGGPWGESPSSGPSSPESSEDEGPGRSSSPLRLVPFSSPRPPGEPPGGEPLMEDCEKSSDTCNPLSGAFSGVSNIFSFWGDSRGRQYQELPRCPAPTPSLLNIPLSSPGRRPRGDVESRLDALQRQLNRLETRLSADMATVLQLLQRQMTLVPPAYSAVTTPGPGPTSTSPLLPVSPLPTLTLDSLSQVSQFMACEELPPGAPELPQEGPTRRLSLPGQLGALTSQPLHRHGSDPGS

Structure (SMILES) | hERG current change (%, negative = inhibition) at 1uM [%]
Cc1onc(C(=O)Nc2ccc3c(c2)OCO3)c1[N+](=O)[O-] | 13.8
O=C(N=c1ccn(-c2nc3ccccc3nc2NS(=O)(=O)c2ccccc2)cc1)c1cccs1 | 11.8
O=C(CSc1nc(O)cc(=O)n1-c1ccccc1)NC1CCCCC1 | 6.52
O=C(c1ccc([N+](=O)[O-])cc1)N1CCSC1c1ccc(Br)cc1 (centres unmarked) | -3.21
C=CCOc1ccc(CN(C)CC(=O)Nc2ccccc2[N+](=O)[O-])cc1.O=C(O)C(=O)O | 0.586
COc1ccc(/C=C2\SC(=S)N(CCC(=O)Nc3ccc(C(=O)O)cc3)C2=O)cc1 | 13.9
O=C(NCC1CCCO1)c1cc(S(=O)(=O)N2CCCCC2)ccc1Cl (centres unmarked) | 7.98
CCCn1c2ccccc2c2cnn(CC(=O)NC3CCCCC3C)c(=O)c21 (centres unmarked) | 16.4
O=C(COC(=O)CCNS(=O)(=O)c1ccccc1)NC(=O)c1ccccc1 | 9.02
Nc1c(C(=O)NCc2ccco2)nnn1CC(=O)Nc1ccccc1 | 18.3
C=CCOn1c(=O)c(=O)n(OCc2ccccc2)c2ccccc21 | 3.35
O=C(CCc1ccc(S(=O)(=O)NCCc2ccccc2)cc1)N1CCN(Cc2ccc3c(c2)OCO3)CC1 | 5.35
O=C(Nc1ncccn1)c1cccc(Cl)c1 | 7.76
Cc1cccc(N2CCN(Cc3cc(=O)n4ccsc4n3)CC2)c1C | -13.4
CC1CCCN(C2(O)C(=O)Nc3ccc(Cl)cc32)C1 (centres unmarked) | 16.1
CC1CC(=O)N(CC(=O)Nc2cccc(Cl)c2)c2ccccc2S1(=O)=O (centres unmarked) | -3.47
CC1CCN(C(=O)c2ccc(CS(=O)(=O)Cc3ccccc3)cc2)CC1 | -12.7
CCCCCN(C(=O)CCC(=O)OCC(=O)N1CCCCC1)c1c(N)n(CCCC)c(=O)[nH]c1=O | 1.2
Cc1ccc(S(=O)(=O)N2CCCCC2C(=O)N2CCN(C)CC2)cc1 (centres unmarked) | 15.2
CCn1cc(C(=O)N2CCN(c3ccc(C(C)=O)cc3)CC2)c2cc(OC)c(OC)cc2c1=O | 4.16
COC(=O)C1=C(C)NC(=S)NC1c1ccc(OC(=O)c2ccco2)cc1 (centres unmarked) | 11
COc1ccc(NS(=O)(=O)c2coc(C(N)=O)c2)cc1Cl | 6.23
Cc1cc(NC(=O)CN2C(=O)NC3(CCCCC3)C2=O)no1 | 13.8
